In PubChem BioAssay AID1159614 (National Center for Advancing Translational Sciences (NCATS), 2016):
The campaign covered roughly 45,000 compounds. About 65 (0.1%) were called active. Calls follow the shape of the dose curve; as a rule, active = well fitted activation curve with a large enough effect; inconclusive = small, poorly fitted or top-dose-only effect; inactive = no such curve, though single readings can be large or run the other way. The list shows a part of the results.

biological target: Galactocerebrosidase (Homo sapiens) (UniProt P54803); experiment: A Novel Cell-Based Assay to Identify Small Molecules for B -Galactocerebrosidase; details: 145M-Twi-hGALC-G270D cells (Twitcher mouse brain line with human GALC G270D), HMU-beta-Gal fluorescence, 48 h; series mostly up to 57.5 µM; activation: at the top concentration; also: 0% is about no effect; nearly all actives have a fitted effect of over 65% in size
Chain of UniProt P54803 (P54803 whole entry, looked up): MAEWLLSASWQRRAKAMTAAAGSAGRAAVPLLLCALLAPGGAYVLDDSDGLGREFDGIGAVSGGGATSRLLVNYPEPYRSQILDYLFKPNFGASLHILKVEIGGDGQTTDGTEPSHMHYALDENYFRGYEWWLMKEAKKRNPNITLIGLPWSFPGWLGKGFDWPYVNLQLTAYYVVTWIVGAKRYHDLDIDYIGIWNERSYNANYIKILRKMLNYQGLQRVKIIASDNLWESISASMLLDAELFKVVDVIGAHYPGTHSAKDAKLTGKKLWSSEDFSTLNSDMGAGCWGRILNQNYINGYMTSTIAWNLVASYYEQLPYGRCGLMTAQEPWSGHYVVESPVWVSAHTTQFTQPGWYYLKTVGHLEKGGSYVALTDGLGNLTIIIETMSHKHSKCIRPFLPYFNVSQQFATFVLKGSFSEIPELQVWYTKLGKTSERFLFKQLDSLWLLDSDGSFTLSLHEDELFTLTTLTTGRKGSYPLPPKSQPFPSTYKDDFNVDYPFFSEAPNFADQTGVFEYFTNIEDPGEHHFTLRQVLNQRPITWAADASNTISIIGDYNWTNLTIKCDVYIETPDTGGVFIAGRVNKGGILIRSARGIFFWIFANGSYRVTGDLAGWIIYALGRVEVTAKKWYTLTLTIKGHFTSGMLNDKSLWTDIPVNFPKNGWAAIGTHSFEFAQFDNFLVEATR
How it was run: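 Fluorescence readout: HMU-β-gal cleavage by mutant GALC (0.1 mM final, citrate/phosphate pH 5.2 with 1 mg/mL taurocholate), stopped with carbonate/bicarbonate plus Triton X-100. Cells: murine Twitcher 145M-Twi expressing human G270D GALC; qHTS for activators.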

activation, inactive:
CC(=O)N1CCC(N(C(=O)Nc2ccc(C)c(F)c2)C(C)C)CC1 -14.7%, Cc1ccc(NC(=O)c2oc3ccccc3c2NC(=O)Cc2cccs2)cc1 -13.7%, CCOc1ccccc1NC(=O)Nc1nnc(N(C)Cc2ccccc2)s1 -17.3%, O=C(CCn1cnc2onc(-c3ccc(F)cc3)c2c1=O)N1CCN(c2ccc(F)cc2)CC1 -12%, CCn1c(C(=O)N2CCCC(C(=O)NCCCOC)C2)cc2sccc21 (centres undefined) -25.1%, Cc1ccccc1NC(=O)c1c(NC(=O)C(C)Oc2cccc(Cl)c2)sc2c1CCCC2 (centres undefined) -17.2%, CCc1c(C)sc2c1CCN(C(=O)Nc1ccccc1C(F)(F)F)C2c1ccccc1 (centres undefined) -17%, COc1cc(Cl)c(C)cc1NC(=O)CCc1c(C)nc2cc(-c3cccc(F)c3)nn2c1C -4.14%, COc1cccc(C(=O)Nc2cc(-c3cn4cccnc4n3)ccc2C)c1OC -14.5%, CCOc1ccc(NC(=O)c2sc3nc4c(cc3c2N)CCCCCC4)cc1 -15.6%, CC1CCN(C(=O)c2c(NC(=O)c3ccccc3F)sc3c2CCC(C(C)(C)C)C3)CC1 (centres undefined) -11.9%, Cc1nc2ccccn2c(=O)c1NC(=O)c1c(F)cccc1F -7.96%, O=C(c1cccs1)N(Cc1cccnc1)c1nc2ccc(F)cc2s1 -17.5%, Cc1ccc(OCC(=O)Nc2ccccc2C(=O)OCc2cc(=O)n3nc(C4CC4)sc3n2)cc1 25.5%, CCCCNS(=O)(=O)c1ccc2nc(-c3cccnc3)cc(C(=O)NCCC)c2c1 -5.57%, Oc1ccc(-c2nc3ccccn3c2Nc2ccc3c(c2)OCCO3)cc1 -18.2%, CNCCCC12CCC(c3ccccc31)c1ccccc12 -12.6%, CCn1cc(S(=O)(=O)c2ccc(OC)cc2)c(=O)c2cc(F)c(N3CCC(C)CC3)cc21 -11.4%, Cc1ccc(CN(Cc2ccco2)C(=O)COc2c(C)cc(C)cc2C)cc1 -18.4%, CCCN(CCC)CCCNC(=O)C1CCC(CNS(=O)(=O)c2cccc3nsnc23)CC1 (centres undefined) -24%, CCOc1ccc(CNC(=O)C2CCN(S(=O)(=O)N3CCCCC3)CC2)cc1 -3.47%, NCCNc1cccc2ccccc12 -17.5%, NCCCCCc1nnc(SCc2ccc(F)cc2)o1 -5.56%, COCCNC(=O)CSc1c2c(nc3cc(Cl)ccc13)CCCC2 -8.9%, CCCc1nn2c(=O)cc(COC(=O)c3cccc(NC(=O)CCc4ccccc4)c3)nc2s1 -4.55%, COCCCNC(=O)c1ccc2nc(Cc3ccc(OC)cc3)oc2c1 -21.6%, Fc1ccccc1Oc1ncnc2c1oc1ccccc12 -10.2%, Clc1ccc(-c2csc(=Nc3ccccc3)n2Cc2ccc3c(c2)OCO3)cc1 -0.592%, COc1ccc(NC(=O)CSc2nc3ccccc3[nH]2)cc1 -5.18%, Cc1cccc(OCc2nc(C#N)c(NCc3ccccc3Cl)o2)c1 -13.8%, CCOC(=O)C1CCN(C(=O)CSc2n[nH]c(-c3ccccc3)n2)CC1 -5.62%, Cc1ccc2nc(COc3ccc(NC(=O)COc4ccccc4F)cc3)cc(=O)n2c1 -1.32%, CC(=O)Nc1nonc1-c1nnc(SCc2ccc(F)cc2)n1C -8.86%, COc1ccc(NC(=O)COCc2cc(-c3ccco3)on2)cc1 -19.1%, CCCCSc1nnc2n(-c3cccc(C)c3)c(=O)c3c4c(sc3n12)CCCC4 -13.1%, COc1cc2c(=O)c(C(=O)c3ccc(C)c(C)c3)cn(Cc3ccccc3)c2cc1OC -15.9%, Cc1cccc(N2CCN(C(=O)c3ccc4c(c3)N(Cc3ccccc3F)C(=O)c3ccccc3S4=O)CC2C)c1 (centres undefined) -10.2%, Cc1cc(C)c2nc(NC(=O)c3ccc(S(=O)(=O)N4CCCC4)cc3)sc2c1 4.29%, COc1ccc(-c2cc3nc(C)c(CCC(=O)N4CCN(c5ccccc5)CC4)c(C)n3n2)c(OC)c1 -15.8%, Cc1ccc(C)c(N2CCN(C(=O)Cn3c(=O)c4cccn4c4ccc(F)cc43)CC2)c1 -7.34%, CCCCC(CC)CNC(=O)CCCc1nnc2n(CCC)c(=O)c3sccc3n12 (centres undefined) 2.76%, Cc1ccc(NC(=O)CSCn2nnc3c(=O)[nH]c(Cc4ccc(F)cc4)nc32)c(C)c1 -21.3%, CCOCCCNC(=O)Cn1nc(C)n2c(cc3cc(C)ccc32)c1=O -1.28%, CCOc1cc(C2C(C(=O)OC)=C(C)NC3=C2C(=O)c2ccccc23)c(Br)cc1OC (centres undefined) -7.85%, O=C(COc1ccccc1Cl)Nc1nc2c(s1)CCCC2 -2.14%, CCCCN(CCCNC(=O)CN1N=C(c2ccccc2)CCC1=O)c1ccccc1 -3.47%, N#C/C(=C\c1ccc(-c2ccccc2C(=O)O)o1)c1nc2ccccc2[nH]1 -24.5%, O=C(Cn1nc2c(cc1=O)CCCC2)Nc1ccc(F)cc1F 0.954%, COc1ccc(CCNC(=O)c2c(O)nc3cc(C)ccn3c2=O)cc1OC -5.61%, Cc1cc(-c2ccc(C)c(S(=O)(=O)N3CCCC(C)C3)c2)on1 (centres undefined) -21%, O=C(Cn1c(=O)n(Cc2ccco2)c(=O)c2ccc(C(=O)NC3CCCC3)cc21)Nc1ccc(F)cc1 -15.8%, COc1ccc(-n2nc(C(=O)NCCc3ccc(Cl)cc3)c3c4ccccc4n(C)c3c2=O)cc1Cl -14.6%, Cc1cc(C)n(CC(=O)Nc2ccc(F)c(F)c2)c(=O)c1C#N -9.43%, COc1ccc(C)cc1NC(=O)C(=O)NCCc1sc(-c2ccc(Cl)cc2)nc1C -9.84%, CCOC(=O)c1c(NC(C)=O)c2c3c(sc2n1Cc1nc(-c2ccc(Cl)cc2)oc1C)CCCC3 -1.83%, CCN(CC)C(=O)C1=C(C)Nc2nc3ccccc3n2C1c1ccc(Br)cc1 (centres undefined) -13.8%, CCc1noc(-c2ccc(NC(C)c3ccccc3)c([N+](=O)[O-])c2)n1 (centres undefined) -8.21%, CC(=O)c1cccc(NC(=O)CCS(=O)(=O)c2cc3c(cc2C)NC(=O)CO3)c1 -8.94%, COc1ccc(N2CCN(C(=O)Cc3coc4ccc(C)cc34)CC2)cc1 -7.16%, CCc1ccc(CNC(=O)c2ccc(CSc3nc4ccncc4n3Cc3ccc(OC)cc3)cc2)cc1 -7.24%, O=S(=O)(Nc1cccc(Cl)c1)c1ccc2[nH]c3c(c2c1)CCCCCC3 -2.79%, CCOc1ccc(C(=O)Nc2c(C(=O)c3ccccc3)oc3ccccc23)cc1 -12.3%, CCC(CC)C(=O)Nc1cc(-c2cn3cccnc3n2)ccc1OC 10%, CCOC(=O)c1c(S(=O)(=O)N2CCC(C(=O)N3CCN(c4cccc(C)c4C)CC3)CC2)c(C)n(C)c1C -12.5%, CCOc1ccccc1C1N=C(N)Nc2nc3ccccc3n21 (centres undefined) -12.9%, Cc1nc(N2CCCC2)c2c(C(=O)Nc3ccc(C)c(Cl)c3)c(C)oc2n1 -22.7%, Cc1ccccc1-c1nnc(CN2CCN(c3cc(Cl)ccc3C)CC2)o1 -0.656%, CCOC(=O)N1CCC(NC(=O)c2ccc3c(c2)N(Cc2cccc(C)c2)C(=O)c2ccccc2S3(=O)=O)CC1 -4.18%, COC(=O)c1c(C)oc2ccc(N(C(=O)c3ccncc3)S(=O)(=O)c3cc(C)c(C)cc3C)cc12 -21.3%, COc1ccc(C(CC(=O)Nc2ccc(C)cn2)N2Cc3ccccc3C2=O)cc1OC (centres undefined) -21.2%, Cc1ccc(Nc2cc(C)nc3nc(Cc4ccc(Cl)cc4)nn23)cc1 -13%, CCC(=O)N1CCc2cc(Br)cc(S(=O)(=O)CCC(=O)Nc3cccc(CC)c3)c21 -9.3%, Cc1ccc(-c2ccc(=O)n(Cc3ccc(F)cc3)n2)cc1 -14.1%, COc1cccc(CNC(=O)Cn2c(=O)oc3cc(S(=O)(=O)N4CCCC4)ccc32)c1 -5.85%, COc1cccc(CNC(=O)c2nnn(CC(=O)Nc3cc(Cl)ccc3C)c2N)c1 -0.472%, O=S(=O)(c1ccc(F)cc1)N1CCC(Oc2ccc(-n3cnnn3)cc2)CC1 -16.1%, CCCN(CCC)CCCNC(=O)c1cc2c(=O)oc3ccc(C)cc3c2s1 0.336%, Cc1ccc(CN2CCSc3ccc(C(=O)Nc4ccc(Cl)cc4)cc32)cc1 -11%, CC(NC(=O)C1(c2cccs2)CCOCC1)c1ccccc1 (centres undefined) -20.6%, CCn1cc(C(=O)N2CCN(c3cc(Cl)ccc3C)CC2)c2cc(OC)c(OC)cc2c1=O -17.2%, CCOc1ccc(CCNC(=O)CCCc2cc(-c3ccc(OCC)cc3)on2)cc1 -4.93%, Cc1ccc(NC(=O)C2CCCN(c3ncnc4c3nc3n4CCCCC3)C2)cc1F (centres undefined) -25.3%, Cc1ccc2nc(/C(C#N)=C/c3cccc(Br)c3)[nH]c2c1 -22.7%, O=C(Cc1csc2ccccc12)NCc1cccc(Br)c1 -9.64%, Cc1ccccc1CN1CCC(CNc2ncnc3onc(-c4ccc(Cl)cc4)c23)CC1 -21.4%, CN(C)S(=O)(=O)n1cc(/C=C(\NC(=O)c2ccccc2F)C(=O)NCCCn2ccnc2)c2ccccc21 13.6%, COc1ccc(Nc2c(-c3ccc(Cl)cc3)nc3cnccn23)cc1OC -0.756%, Cc1cc(C)cc(Oc2coc3c(CN4CCN(C)CC4)c(O)ccc3c2=O)c1 -4.06%, O=C(NCc1ccccc1Cl)C1CCN(S(=O)(=O)c2ccc3c(c2)CCCN3C(=O)C2CCC2)CC1 6.88%, CCC12CN3CC(C)(CN(C1)C3c1ccc(O)cc1O)C2=O (centres undefined) -4.3%, CCOc1ccc(NC(=O)c2c(NC(=O)c3ccco3)sc3c2CCC(C(C)(C)C)C3)cc1 (centres undefined) -8.25%, COc1cc(NS(=O)(=O)c2ccc(NC(=O)C(C)Oc3ccc(Cl)cc3Cl)cc2)nc(OC)n1 (centres undefined) -14.9%, O=C(Nc1cccc(C(F)(F)F)c1)C1CCN(c2nnc(-n3cccc3)s2)CC1 -10.8%, Cc1nc2cccnc2n1-c1cccc(C(=O)NCc2ccc(OC(C)C)cc2)c1 5.06%, O=C(O)CC(NS(=O)(=O)c1ccc(Cl)s1)c1ccccc1 (centres undefined) -14.7%, COc1cccc(Cn2nnc(C(=O)Nc3cc(C)ccc3C)c2N)c1 -27.3%, CC(C)CS(=O)(=O)c1oc(-c2ccc(F)cc2)nc1S(=O)(=O)c1ccccc1 -16.6%, CCOc1ccc(NC(=O)N2CCC(C(N)=O)(N3CCCCC3)CC2)cc1 -11%, COc1ccc(CCNC(=O)c2cnc3ccc(C)cn3c2=O)cc1 -2.02%
